# Results published in PubChem BioAssay (Tox21).
# Values joined by “and” are separate entries in the source; they are usually repeats but may differ in a detail not shown here. Identical values can stand only once. Inconclusive means that the source gave no clear call. Such entries were picked first, then a sample of the others. For some assays here: Potencies beside an inconclusive call are fits to weak or partial responses and may not hold up. Some structures have more than one record in an assay (separate samples or runs), and their calls can disagree. Active and inactive are the calls of the source. Unless noted, calls follow the shape of the dose curve; as a rule, active = well fitted curve in the direction sought with a large enough effect in the repeat runs; inconclusive = weak or mixed curves; inactive = no such curve, though single readings can be large; an effect the other way counts as inactive or inconclusive.
# What was measured:
# [1] = qHTS assay for small molecule agonists of the p53 signaling pathway (AID 651631; calls by dose curve; also: potency is read from the fitted curve at half-maximal effect; nearly all actives have a fitted effect of over 15% in size); settings: HCT-116 p53RE-bla reporter, beta-lactamase FRET ratio, 16 h; activation: at 73.3 µM (top of the series) unless noted
# Method in brief: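 Testing took place in human colorectal HCT-116 cells with stable p53RE-driven beta-lactamase. After 16 h of compound exposure at 37 °C, a FRET substrate was added and fluorescence recorded 2 h later.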
# [2] = qHTS assay for small molecule disruptors of the mitochondrial membrane potential - cell viability (AID 720634; calls by dose curve; also: potency is read from the fitted curve at half-maximal effect; nearly all actives have a fitted effect of over 20% in size)
# Method in brief: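 After overnight attachment at 37 C, HepG2 cells received compound or DMSO vehicle for 1 hr. Viability is then taken from ATP-driven luminescence following a 30 min room-temperature CellTiter-Glo step.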
# [3] = qHTS assay for small molecule disruptors of the mitochondrial membrane potential (AID 720635); settings: HepG2 mitochondrial membrane potential, Mito-MPS dye ratio; ratio activity, negative = MMP loss: at 83.2 µM (top of the series) unless noted; also: potency is read from the fitted curve at half-maximal effect
# Method in brief: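 HepG2 cells (2,000/well) attached overnight at 37C, then took compound for 1 hr at 37C, 5% CO2. Mito-MPS dye was added for 30 min; fluorescence was read at 490/535 nm (monomers) and 540/590 nm (aggregates).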
# [4] = target: Glucocorticoid receptor (Homo sapiens) (UniProt P04150); assay: qHTS assay to identify small molecule agonists of the glucocorticoid receptor (GR) signaling pathway (AID 720691; active = well fitted activation curve with a large enough effect in the signal ratio in the repeat runs, not every such curve was filed as active; inconclusive = weak or mixed curves, or effect the other way; inactive = no such curve, though single readings can be large or run the other way; the % refers to the signal ratio; also: potency is read from the fitted curve at half-maximal effect); settings: GR-bla HeLa, beta-lactamase reporter ratio, 18 h; activation: at 62.4 µM (top of the series) unless noted
# Method in brief: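 Agonist mode in a HeLa line carrying a GRE-controlled beta-lactamase reporter. Compounds act for 18 h at 37 C before a 2 h room-temperature FRET substrate step and fluorescence reading.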
# [5] = target: Glucocorticoid receptor (Homo sapiens) (UniProt P04150); assay: qHTS assay to identify small molecule antagonists of the glucocorticoid receptor (GR) signaling pathway (AID 720692; active = well fitted inhibition curve with a large enough effect in the signal ratio in the repeat runs, not every such curve was filed as active; inconclusive = weak or mixed curves, or effect the other way; inactive = no such curve, though single readings can be large or run the other way; the % refers to the signal ratio; also: potency is read from the fitted curve at half-maximal effect); settings: GR-bla HeLa, beta-lactamase FRET ratio, dexamethasone-stimulated, 18 h; activity change, negative = inhibition: at 58.5 µM (top of the series) unless noted
# Method in brief: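 Cells plated, rested 4 h at 37 C/5% CO2; compounds in DMSO pin-transferred; dexamethasone added to 5 nM final; 18 h at 37 C; B/G FRET substrate added, 2 h room temperature; fluorescence measured.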
# [6] = qHTS assay to identify small molecule antagonists of the thyroid receptor (TR) signaling pathway - cell viability counter screen (AID 743064); settings: GH3.TRE-Luc viability, CellTiter-Fluor, 24 h; activity change, negative = cytotoxic: at 70.3 µM (top of the series) unless noted; also: nearly all actives have a fitted effect of over 50% in size; also: potency is read from the fitted curve at half-maximal effect; as to activity change, negative = cytotoxic: % is scaled to controls: 0 for no effect and ±100 for the full control effect
# Method in brief: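 Viability of T3-stimulated (1 nM final) GH3.TRE-Luc cells is measured by CellTiter-Fluor fluorescence after 23.5 h compound exposure at 37 °C plus 30 min reagent incubation.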
# [7] = qHTS assay to identify small molecule antagonists of the thyroid receptor (TR) signaling pathway (AID 743065); also: potency is read from the fitted curve at half-maximal effect; nearly all actives have a fitted effect of over 55% in size
# Method in brief: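 GH3.TRE-Luc rat pituitary cells carrying two TR response elements driving luciferase were plated for 4 h, given compound plus 1 nM T3 (final), and incubated 23.5 h at 37 C. ONE-Glo luminescence measured reporter inhibition; CellTiter-Fluor fluorescence tracked cytotoxicity.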
# [8] = target: Nuclear receptor subfamily 1 group I member 2 (Homo sapiens) (UniProt O75469); assay: CYP3A4 induction through human pregnane X receptor (PXR) by small molecules, qHTS assay (AID 1346984); settings: DPX-2 HepG2 PXR, CYP3A4-luciferin luminescence, 24 h; activation: at 46.1 µM (top of the series) unless noted; also: potency is read from the fitted curve at half-maximal effect; nearly all actives have a fitted effect of over 40% in size
# Method in brief: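 Steps: seed DPX-2 cells, 5 hr at 37C; pin-transfer compounds; 24 hr at 37C; add Luciferin-IPA (3uM final), 3 hr at 37C; add One-Glo, 30 min RT; read luminescence.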
# [9] = target: Nuclear receptor subfamily 1 group I member 2 (Homo sapiens) (UniProt O75469); assay: Human pregnane X receptor (PXR) activation by small molecules, qHTS assay (AID 1346985); also: potency is read from the fitted curve at half-maximal effect; nearly all actives have a fitted effect of over 40% in size
# Method in brief: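 DPX-2 cells (HepG2 co-transfected with a PXR response element and a CYP3A4-promoter luciferase construct) were seeded at 2,000 per well, rested 5 hr at 37C, then exposed to DMSO-dissolved compounds for 24 hr. Activation was read as luciferase luminescence.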
# [10] = qHTS assay to identify small molecule antagonists of the glucocorticoid receptor (GR) signaling pathway - cell viability counter screen (AID 720693); settings: GR-bla HeLa viability, CellTiter-Glo luminescence, 18 h, with 5 nM dexamethasone present; viability change, negative = cytotoxic: at 58.5 µM (top of the series); also: potency is read from the fitted curve at half-maximal effect; nearly all actives have a fitted effect of over 55% in size
# [11] = qHTS assay to identify small molecule antagonists of the androgen receptor (AR) signaling pathway - cell viability counter screen (AID 743033; also: potency is read from the fitted curve at half-maximal effect; nearly all actives have a fitted effect of over 45% in size); settings: AR-bla HEK293 viability, CellTiter-Glo luminescence, 16 h; activity change, negative = cytotoxicity: at 58.5 µM (top of the series) unless noted
# [12] = test system: thyroid hormone receptor (rat, GH3 cells); assay: qHTS assay to identify small molecule agonists of the thyroid receptor (TR) signaling pathway (AID 743066; calls by dose curve; also: % is scaled to controls: 0 for no effect and ±100 for the full control effect); settings: GH3.TRE-Luc cells, TR agonist luciferase, 24 h; activation: at 83.9 µM (top of the series) unless noted
# [13] = qHTS assay to identify small molecule antagonists of the estrogen receptor alpha (ER-alpha) signaling pathway - cell viability counter screen (AID 743074; calls by dose curve;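 also: HEK293 cells carrying ER-alpha-UAS-bla reporter stimulated with 17beta-estradiol; potency is read from the fitted curve at half-maximal effect; nearly all actives have a fitted effect of over 45% in size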)
# [14] = target: Estrogen receptor (Homo sapiens) (UniProt P03372); assay: qHTS assay to identify small molecule agonists of the estrogen receptor alpha (ER-alpha) signaling pathway using the BG1 cell line (AID 743079); settings: BG1Luc4E2 cells, ERE-luciferase agonist, 22 h; activation: at 70.3 µM (top of the series) unless noted; also: nearly all actives have a fitted effect of over 20% in size; also: potency is read from the fitted curve at half-maximal effect; as to activation: % is scaled to controls: 0 for no effect and ±100 for the full control effect
# [15] = qHTS assay to identify small molecule antagonists of the estrogen receptor alpha (ER-alpha) signaling pathway using the BG1 cell line - cell viability counter screen (AID 743081); settings: BG1Luc4E2 viability, CellTiter-Fluor, 22 h; activity change, negative = cytotoxicity: at 70.3 µM (top of the series) unless noted;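 also: compound given together with 17beta-estradiol as the ER stimulus; potency is read from the fitted curve at half-maximal effect; nearly all actives have a fitted effect of over 45% in size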
# [16] = target: Peroxisome proliferator-activated receptor gamma (Homo sapiens) (UniProt P37231); assay: qHTS assay to identify small molecule agonists of the peroxisome proliferator-activated receptor gamma (PPARg) signaling pathway (AID 743094; active = well fitted activation curve with a large enough effect in the signal ratio in the repeat runs, not every such curve was filed as active; inconclusive = weak or mixed curves, or effect the other way; inactive = no such curve, though single readings can be large or run the other way; the % refers to the signal ratio; also: potency is read from the fitted curve at half-maximal effect; as to activation: % is scaled to controls: 0 for no effect and ±100 for the full control effect); settings: HEK293H PPARg-UAS-bla, beta-lactamase FRET ratio, 17 h; activation: at 57 µM (top of the series) unless noted
# Method in brief: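 Quantitative HTS agonist mode: stable HEK293H line with UAS-beta-lactamase reporter under PPARg control, 17 h compound exposure at 37C, fluorescence after 1 h FRET substrate loading at room temperature.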
# [17] = target: Nuclear receptor subfamily 1 group I member 2 (Rattus norvegicus) (UniProt Q9R1A7); assay: Rat pregnane X receptor (rPXR) activation by small molecules, qHTS assay (AID 1346983); settings: rPXR luciferase reporter cells, One-Glo luminescence, 24 h; max activation: hits give high values; also: nearly all actives have a fitted effect of over 20% in size; also: potency is read from the fitted curve at half-maximal effect
# Method in brief: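 Cell-based rPXR luciferase reporter assay, 2,000 cells per well, rested 5hr at 37 C before compound addition in DMSO, then 24 hr at 37 C. One-Glo reagent was added and luminescence read after 30 min at room temperature.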
# [18] = qHTS assay for small molecules that induce genotoxicity in human embryonic kidney cells expressing luciferase-tagged ATAD5 - cell viability (AID 651634; calls by dose curve; also: potency is read from the fitted curve at half-maximal effect; nearly all actives have a fitted effect of over 25% in size)
# Method in brief: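 Cytotoxicity counterscreen in HEK293T cells bearing an ATAD5-luciferase reporter: live-cell protease activity measured by CellTiter-Fluor fluorescence after 15.5 hr compound exposure.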
# [19] = target: Androgen receptor (Homo sapiens) (UniProt P10275); assay: qHTS assay to identify small molecule antagonists of the androgen receptor (AR) signaling pathway (AID 743035; active = well fitted inhibition curve with a large enough effect in the signal ratio in the repeat runs, not every such curve was filed as active; inconclusive = weak or mixed curves, or effect the other way; inactive = no such curve, though single readings can be large or run the other way; the % refers to the signal ratio; also: potency is read from the fitted curve at half-maximal effect); settings: HEK293 AR-UAS-bla, R1881-stimulated, beta-lactamase FRET, 16 h; activity change, negative = inhibition: at 58.5 µM (top of the series) unless noted
# Method in brief: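 Antagonism is scored as loss of R1881-driven beta-lactamase reporter expression in HEK293 cells carrying the reporter under a UAS element, after 16 h co-treatment at 37C and a 2 h room-temperature FRET substrate read.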
# [20] = qHTS assay to identify small molecule antagonists of the androgen receptor (AR) signaling pathway using the MDA cell line - cell viability counter screen (AID 743041; also: potency is read from the fitted curve at half-maximal effect; nearly all actives have a fitted effect of over 45% in size); settings: MDA-kb2 viability, CellTiter-Fluor, 16 h, cells co-treated with R1881 androgen agonist; viability change, negative = cytotoxic: at 70.3 µM (top of the series)
# Method in brief: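 MDA-kb2 AR-luc human breast carcinoma cells (MMTV-luciferase, AR/GR responsive) were treated with compounds plus R1881 agonist for 16 h at 37 °C. Viability was read as CellTiter-Fluor fluorescence in the same wells as the reporter assay.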
# [21] = target: Androgen receptor (Homo sapiens) (UniProt P10275); assay: qHTS assay to identify small molecule antagonists of the androgen receptor (AR) signaling pathway using the MDA cell line (AID 743042; also: potency is read from the fitted curve at half-maximal effect; nearly all actives have a fitted effect of over 55% in size)
# Method in brief: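 MDA-kb2 cells (human breast carcinoma, stably carrying an MMTV-luciferase reporter responsive to AR and GR) were plated at 3,000 cells/well and preincubated 5 hr at 37C, then given compound plus R1881 agonist for 16 h. ONE-Glo luminescence was read.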
# [22] = qHTS assay to identify small molecule antagonists of the estrogen receptor alpha (ER-alpha) signaling pathway using the BG1 cell line (AID 743080; calls by dose curve;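 also: BG1 cells stimulated with 17beta-estradiol alongside compound; potency is read from the fitted curve at half-maximal effect; nearly all actives have a fitted effect of over 25% in size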); settings: BG1Luc4E2 ERE-luciferase antagonist mode, luminescence; activity change, negative = inhibition: at 70.3 µM (top of the series) unless noted
# Method in brief: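 Luciferase inhibition measured with ONE-Glo after 30 min at RT in BG1Luc4E2 cells given test compounds and 17beta-estradiol for 21.5 h at 37 C; CellTiter-Fluor viability read in the same wells beforehand.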
# Tags tell the direction and shape of the fitted curve or compound fluorescence and quenching.
# Sequence of UniProt P03372 (P03372 whole entry, looked up): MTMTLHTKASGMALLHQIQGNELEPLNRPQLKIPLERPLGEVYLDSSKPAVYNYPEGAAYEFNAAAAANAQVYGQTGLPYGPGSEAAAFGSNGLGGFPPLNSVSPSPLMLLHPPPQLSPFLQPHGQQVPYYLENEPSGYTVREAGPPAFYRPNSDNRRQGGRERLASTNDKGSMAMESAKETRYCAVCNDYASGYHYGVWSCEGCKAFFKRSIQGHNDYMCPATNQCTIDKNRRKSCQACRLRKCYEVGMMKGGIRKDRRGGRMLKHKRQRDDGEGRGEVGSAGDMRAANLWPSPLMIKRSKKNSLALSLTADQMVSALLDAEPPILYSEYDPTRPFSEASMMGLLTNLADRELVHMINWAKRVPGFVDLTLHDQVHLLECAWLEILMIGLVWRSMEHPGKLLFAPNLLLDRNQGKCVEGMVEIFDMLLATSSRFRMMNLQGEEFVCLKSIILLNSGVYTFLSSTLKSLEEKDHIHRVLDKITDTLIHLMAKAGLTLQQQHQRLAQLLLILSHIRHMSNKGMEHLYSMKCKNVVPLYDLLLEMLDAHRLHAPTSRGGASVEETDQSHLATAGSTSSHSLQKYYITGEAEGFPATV
# Sequence of UniProt Q9R1A7 (Q9R1A7 whole entry, looked up): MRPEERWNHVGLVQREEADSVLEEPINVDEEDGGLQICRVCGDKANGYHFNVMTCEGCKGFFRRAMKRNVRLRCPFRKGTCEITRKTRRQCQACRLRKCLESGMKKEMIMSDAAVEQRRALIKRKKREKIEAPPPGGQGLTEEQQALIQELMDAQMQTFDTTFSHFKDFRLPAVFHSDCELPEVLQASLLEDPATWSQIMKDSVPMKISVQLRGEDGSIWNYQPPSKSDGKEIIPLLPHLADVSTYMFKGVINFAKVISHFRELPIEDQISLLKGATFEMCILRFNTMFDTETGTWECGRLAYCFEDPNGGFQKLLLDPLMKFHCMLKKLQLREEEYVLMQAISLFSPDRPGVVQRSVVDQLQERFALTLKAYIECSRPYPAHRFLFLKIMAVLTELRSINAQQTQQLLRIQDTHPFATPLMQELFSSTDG
# Sequence of UniProt P04150 (P04150 whole entry, looked up): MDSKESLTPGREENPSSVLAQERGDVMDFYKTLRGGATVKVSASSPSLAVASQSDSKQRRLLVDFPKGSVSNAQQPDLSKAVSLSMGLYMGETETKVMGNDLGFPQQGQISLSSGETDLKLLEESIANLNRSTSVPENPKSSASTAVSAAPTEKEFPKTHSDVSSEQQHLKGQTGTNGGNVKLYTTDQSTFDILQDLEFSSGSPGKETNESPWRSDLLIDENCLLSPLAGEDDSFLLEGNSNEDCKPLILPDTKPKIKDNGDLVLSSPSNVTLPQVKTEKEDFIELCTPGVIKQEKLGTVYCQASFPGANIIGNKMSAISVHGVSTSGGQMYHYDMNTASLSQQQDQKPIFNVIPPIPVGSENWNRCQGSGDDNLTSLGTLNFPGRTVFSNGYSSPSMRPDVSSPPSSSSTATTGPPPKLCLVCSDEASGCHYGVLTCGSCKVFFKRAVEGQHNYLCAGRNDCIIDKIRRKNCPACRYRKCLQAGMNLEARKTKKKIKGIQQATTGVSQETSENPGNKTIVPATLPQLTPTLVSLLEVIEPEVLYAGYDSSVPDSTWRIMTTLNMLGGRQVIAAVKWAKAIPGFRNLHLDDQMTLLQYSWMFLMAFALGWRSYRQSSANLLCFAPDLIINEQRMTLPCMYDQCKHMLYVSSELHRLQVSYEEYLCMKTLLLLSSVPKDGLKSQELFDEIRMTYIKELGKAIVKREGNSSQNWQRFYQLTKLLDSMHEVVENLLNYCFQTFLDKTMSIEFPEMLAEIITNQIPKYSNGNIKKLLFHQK
# Sequence of UniProt P37231 (P37231 whole entry, looked up): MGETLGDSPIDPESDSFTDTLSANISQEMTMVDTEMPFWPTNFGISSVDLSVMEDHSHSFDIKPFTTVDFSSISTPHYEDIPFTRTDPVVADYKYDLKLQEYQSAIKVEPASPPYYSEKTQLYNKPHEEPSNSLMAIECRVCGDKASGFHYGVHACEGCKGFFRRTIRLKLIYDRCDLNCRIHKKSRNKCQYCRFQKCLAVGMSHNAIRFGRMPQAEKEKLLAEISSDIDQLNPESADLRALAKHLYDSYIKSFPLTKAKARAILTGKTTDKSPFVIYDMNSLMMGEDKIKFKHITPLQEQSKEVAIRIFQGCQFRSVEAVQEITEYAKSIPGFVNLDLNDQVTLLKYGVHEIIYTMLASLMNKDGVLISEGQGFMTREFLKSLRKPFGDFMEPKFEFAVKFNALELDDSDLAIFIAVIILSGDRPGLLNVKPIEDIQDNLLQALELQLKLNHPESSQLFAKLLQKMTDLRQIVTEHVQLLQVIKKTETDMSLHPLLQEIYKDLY
# Sequence of UniProt P10275 (P10275 whole entry, looked up): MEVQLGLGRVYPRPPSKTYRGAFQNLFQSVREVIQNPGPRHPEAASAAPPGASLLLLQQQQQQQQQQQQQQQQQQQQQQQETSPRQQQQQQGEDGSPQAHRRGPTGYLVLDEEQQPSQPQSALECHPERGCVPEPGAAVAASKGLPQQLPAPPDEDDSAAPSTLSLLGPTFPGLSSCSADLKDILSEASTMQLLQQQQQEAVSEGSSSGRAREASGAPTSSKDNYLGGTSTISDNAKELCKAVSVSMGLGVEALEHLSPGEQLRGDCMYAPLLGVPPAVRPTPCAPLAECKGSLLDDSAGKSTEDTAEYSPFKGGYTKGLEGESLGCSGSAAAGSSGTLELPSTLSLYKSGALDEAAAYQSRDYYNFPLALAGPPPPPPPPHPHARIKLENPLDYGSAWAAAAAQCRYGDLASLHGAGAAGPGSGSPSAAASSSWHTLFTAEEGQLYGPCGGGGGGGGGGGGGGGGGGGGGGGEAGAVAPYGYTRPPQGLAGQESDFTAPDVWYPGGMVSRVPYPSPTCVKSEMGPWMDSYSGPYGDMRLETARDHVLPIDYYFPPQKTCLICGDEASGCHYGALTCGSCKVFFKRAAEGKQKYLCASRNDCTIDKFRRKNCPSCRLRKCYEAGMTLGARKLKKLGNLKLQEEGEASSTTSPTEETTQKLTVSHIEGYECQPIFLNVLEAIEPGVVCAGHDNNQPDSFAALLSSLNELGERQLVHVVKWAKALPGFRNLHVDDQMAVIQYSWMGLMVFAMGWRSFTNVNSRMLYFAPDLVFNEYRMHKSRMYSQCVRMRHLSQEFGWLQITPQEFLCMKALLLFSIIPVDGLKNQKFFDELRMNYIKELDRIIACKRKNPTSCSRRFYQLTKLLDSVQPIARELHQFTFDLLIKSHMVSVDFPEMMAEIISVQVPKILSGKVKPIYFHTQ
compound,measurement,setting,value
CCOC(=O)Oc1c(OC)cc(C(=O)O[C@@H]2C[C@@H]3CN4CCc5c([nH]c6cc(OC)ccc56)[C@H]4C[C@@H]3[C@H](C(=O)OC)[C@H]2OC)cc1OC,Potency,[1],"inconclusive: 10.1 µM [falling, partial curve, poor fit]"
same,Potency,[2],active: 10.1 µM
same,Potency,[3],"inconclusive: 2.54 µM [activator, full curve]"
same,Potency,[4],"inconclusive: 11.5 µM [partial curve, poor fit]"
same,Potency,[5],"inconclusive: 11.5 µM [activator, single point]"
same,Potency,[6],inactive
same,Potency,[7],"inconclusive: 12.7 µM [inhibitor, partial curve, poor fit]"
same,Potency,[8],"inconclusive: 6.31 µM [activator, partial curve, poor fit]"
same,Potency,[9],"inconclusive: 7.08 µM [activator, partial curve, poor fit]"
CC[C@@]1([C@@H]2O[C@@H]([C@H]3O[C@@](O)(CO)[C@H](C)C[C@@H]3C)C[C@@H]2C)CC[C@H]([C@]2(C)CC[C@]3(C[C@H](O)[C@@H](C)[C@@H]([C@@H](C)[C@@H](OC)[C@H](C)C(=O)O)O3)O2)O1 (stereo in doubt),Potency,[3],"inconclusive: 393 nM [activator, full curve] and inconclusive: 237 nM [activator, full curve]"
same,Potency,[4],"inconclusive: 7.6 nM [rising, full curve, poor fit] and inconclusive: 239 nM [rising, full curve, poor fit]"
same,Potency,[5],"inconclusive: 535 nM [fluorescent, full curve, poor fit] and inconclusive: 239 nM [fluorescent, full curve]"
same,Potency,[10],inconclusive: 6.01 µM [cytotoxic]
same,Potency,[11],"inconclusive: 4.77 µM [cytotoxic, partial curve, poor fit] and inconclusive: 1.51 µM [cytotoxic, full curve, poor fit]"
same,activation,[12],inconclusive: -7.55% [phenotype inactive] and inconclusive: -9.82% [phenotype inactive]
same,Potency,[13],"inconclusive: 535 nM [cytotoxic, full curve] and inconclusive: 26.8 nM [cytotoxic, full curve]"
same,Potency,[14],inactive
same,Potency,[15],active: 18.8 µM
same,activation,[16],inconclusive: -9.67% and inconclusive: -13.9%
same,max activation,[17],inactive: -15.4%
Cc1cc(O)c2c(c1)O[C@@]1(C)CC[C@H]3C(C)(C)CCCC34CO[C@@H]2[C@H]41 (stereo partly drawn),Potency,[1],"inconclusive: 29.8 µM [cytotoxic, partial curve]"
same,Potency,[18],inconclusive: 29.8 µM
same,Potency,[2],"inconclusive: 33.5 µM [cytotoxic, partial curve, poor fit]"
same,Potency,[3],inconclusive: 29.8 µM [inhibitor]
same,Potency,[4],"inconclusive: 26.8 µM [cytotoxic, single point]"
same,Potency,[5],"inconclusive: 26.8 µM [cytotoxic, single point]"
same,Potency,[11],"inconclusive: 26.8 µM [cytotoxic, single point]"
same,Potency,[19],active: 23.9 µM
same,Potency,[20],"inconclusive: 33.5 µM [cytotoxic, single point]"
same,Potency,[21],"inconclusive: 33.5 µM [inhibitor, single point]"
same,Potency,[6],active: 18.8 µM
same,activation,[12],inconclusive: -8.43% [phenotype inactive]
same,Potency,[14],"inconclusive: 29.8 µM [inhibitor, partial curve]"
same,Potency,[22],active: 26.6 µM
same,Potency,[16],inconclusive: 26.8 µM [single point]
same,Potency,[17],"inconclusive: 15.8 µM [activator, partial curve]"
CC(=O)N[C@@H]1C(O[C@H]2O[C@H](C(=O)O)C(O)[C@H](O)[C@H]2O)[C@H](O)[C@@H](CO)O[C@H]1O[C@@H]1C(C(=O)O)O[C@@H](O[C@H]2[C@H](O)[C@@H](CO)OC(O)[C@@H]2NC(C)=O)[C@H](O)[C@H]1O (stereo partly drawn),"ratio activity, negative = MMP loss",[3],inconclusive: -16.8%
same,max activation,[17],inactive: -1.09%
